According to PubChem BioAssay AID686979 (National Center for Advancing Translational Sciences (NCATS), 2013):
Hit rate of the full screen: of about 420,000 compounds, about 50,000 (12%) were called active. Inconclusive means that the source gave no clear call. Such entries were picked first, then a sample of the others. The call rests on the fitted dose curve; in most records, active means well fitted inhibition curve with a large enough effect; inconclusive means small, poorly fitted or top-dose-only effect; inactive means flat fitted curve, though single readings scatter. No potency is given beside an inconclusive call; the fits are too rough.

Experiment: qHTS for Inhibitors of human tyrosyl-DNA phosphodiesterase 1 (TDP1): qHTS in cells in presence of CPT; further: nearly all actives have a fitted effect of over 55% in size
Details: chicken DT40 Tdp1-/-;hTDP1 cells + 20 nM CPT, ATP luminescence, 48 h; activity change, negative = growth inhibition: at 46.2 µM (top of the series)
Outline: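 Chicken DT40 Tdp1-/- cells stably complemented with human TDP1 were seeded at 400 cells/well in medium containing 20 nM camptothecin, exposed to pin-transferred compounds, and grown at 37 °C for at least 48 hr. Viability was read as ATP luminescence.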
On the % scale 0 is the no-effect control and ±100 the full control effect; potency means the concentration at half of the fitted maximal effect; tags describe the fitted curve by direction and shape.

| Structure (SMILES) | Potency | activity change, negative = growth inhibition |
| --- | --- | --- |
| COc1cc(OC)c(NC(=O)C2=C(C)C(=O)OC23CCCCCC3)cc1Cl | inconclusive [inhibitor, single point] | – |
| COc1ccccc1NCC(=O)NN=C1CCS(=O)(=O)c2ccc(F)cc21 | inconclusive [inhibitor, single point] | – |
| CCn1c2c(c(=O)n3ncc(C(=O)Nc4cc(Cl)ccc4C)c13)CN(Cc1ccc(OC)cc1)CC2 | inconclusive [inhibitor, single point] | – |
| COc1ccc(C2C=C(c3cccc(OC)c3)Nc3c(C(=O)Nc4ccccc4)cnn32)cc1 (stereo unspecified) | inconclusive [inhibitor, single point] | – |
| Cc1onc(C(=O)N2C(C)CCCC2C)c1[N+](=O)[O-] (stereo unspecified) | inconclusive [inhibitor, single point] | – |
| CC(C)(C)NC(=O)CC1C[C@H](C(=O)N2CCCCC2)[C@@]2(C)c3[nH]c4ccccc4c3CCN2C1=O (stereo partly specified) | inactive | – |
| O=C1c2cccnc2C(=O)N1Cc1ccccc1 | inactive | – |
| Cc1nn2c(N3CCN(C4CCCC4)CC3)cc(C(C)(C)C)nc2c1-c1ccccc1 | inactive | – |
| Cc1cc(C(=O)Nc2ccncc2)c2ccccc2n1 | inactive | – |
| Cc1ccc(Cl)cc1NC(=O)CCC(=O)N1CC(C)Sc2ccccc21 (stereo unspecified) | active: 23.1 µM | – |
| COCCCNC(=O)c1c[nH]c2ccc(S(=O)(=O)N3CCc4ccccc43)cc2c1=O | inactive | – |
| CC1(Oc2cccc(F)c2)CCN(Cc2ccc(-c3ccccc3)o2)C1 (stereo unspecified) | active: 23.1 µM | – |
| COc1ccc(NC(=O)N2CC[C@@]3(CCCN(S(C)(=O)=O)C3)C2)cc1 | inactive | – |
| Cc1nc2sc(C(c3ccco3)N3CCC(Cc4ccccc4)CC3)c(O)n2n1 (stereo unspecified) | inactive | – |
| CCC1CN(C(=O)N2CCC(C(=O)N3CCN(c4cccc(C)c4C)CC3)CC2)c2ccccc2O1 (stereo unspecified) | active: 7.31 µM | – |
| Cc1ccc2[nH]c(-c3cccc(N)c3)cc2c1 | inactive | – |
| Cc1ccc(S(=O)(=O)N(C)CC(=O)NCC(=O)Nc2ccc(F)c(F)c2F)cc1 | inactive | – |
| Cc1cc(C(=O)COC(=O)Cn2cnc3c2c(=O)n(C)c(=O)n3C)c(C)n1C | inactive | – |
| O=C(Nc1ccccc1N1CCCC1)c1ccc(Cl)cc1Cl | inconclusive [inhibitor, single point] | – |
| Cc1nc2cc(C(F)(F)F)ccc2n1CCNc1nc(-c2ccc([N+](=O)[O-])c(Cl)c2)cs1 | inconclusive [inhibitor, single point] | – |
| C[C@H](NC(=O)c1ccccc1)C(=O)OCC(=O)Nc1sccc1C(N)=O | inactive | – |
| COc1ccc(NC(=O)C2CCN(Cc3cnn(-c4ccccc4)c3-n3cccc3)CC2)cc1OC | inconclusive [inhibitor, partial curve] | – |
| COc1ccc(-c2nc(-c3ccc(O)cc3O)cs2)cc1OC | inconclusive [inhibitor, single point] | – |
| O=C(NCc1ccccc1)C1CCN(S(=O)(=O)N2CCOCC2)CC1 | inactive | – |

| Structure (SMILES) | Potency | activity change, negative = growth inhibition |
| --- | --- | --- |
| CCc1ccc2[nH]c(=O)c(CN(Cc3cccs3)Cc3nnnn3Cc3ccccc3)cc2c1 | inconclusive [inhibitor, single point] | – |
| CCC(c1nnnn1-c1c(C)cccc1C)N1CCN(c2ccc(C(F)(F)F)cc2[N+](=O)[O-])CC1 (stereo unspecified) | inconclusive [inhibitor, full curve, poor fit] | – |
| CCCCCn1c(N)c(-c2nc3ccccc3s2)c2c([N+](=O)[O-])nn(CC)c(=O)c21 | inconclusive [inhibitor, single point] | – |
| Nc1c(C(=O)Nc2nc3ccccc3s2)sc2nc(-c3cccs3)ccc12 | active: 11.6 µM | – |
| Cc1nc(SCC(=O)N2CCN(C(=O)c3ccco3)CC2)c2c(C)c(C)sc2n1 | inconclusive [inhibitor, single point] | – |
| COCc1cc(C)nc(N2CCN(c3ccccc3)CC2)c1C#N | – | inconclusive: -32.5% [inhibitor] |
| O=C(OCCc1cc2ccccc2c(=O)o1)c1ccc(F)cc1 | inconclusive [inhibitor, single point] | – |
| Nc1ccc(NC(=O)c2ccccc2)c2c1C(=O)c1ccccc1C2=O | active: 13 µM | – |
| CCc1ccc(CC)c(S(=O)(=O)Nc2ccc(O)c(C(=O)O)c2)c1 | inactive | – |
| O=c1cc(NS(=O)(=O)c2ccccc2)nc(SCc2ccccc2Cl)[nH]1 | inconclusive [inhibitor, single point] | – |
| CN(C)c1ncnc2c1nnn2C1OC(CO)C(O)C1O (stereo unspecified) | active: 0.58 µM | – |
| NC(=O)c1cccc(-c2ccnc3c2CC(C(=O)NCCC(F)(F)F)O3)c1 (stereo unspecified) | inconclusive [inhibitor, partial curve, poor fit] | – |
| COC(=O)C(NNc1ccccc1)(NC(=O)c1ccccc1F)C(F)(F)F (stereo unspecified) | inactive | – |
| CCCc1nc2ccccc2c(C(=O)OCC(=O)Nc2c(C)n(C)n(-c3ccccc3)c2=O)c1CC | inconclusive [inhibitor, single point] | – |
| CN(Cc1ccco1)C(=O)c1ccc2c(c1)N(Cc1ccccc1F)C(=O)c1ccccc1S2 | active: 20.6 µM | – |
| COc1ccc(C(O)c2nc(-c3cccc(O)c3)cs2)cc1 (stereo unspecified) | inconclusive [inhibitor, single point] | – |
| O=C(Nc1ccccc1OC(F)F)C1CCCN1C(=O)c1cccs1 (stereo unspecified) | inactive | – |
| COc1ccc(-c2nnn(CC(=O)N(C3CCCCC3)C(C)C(=O)NC3CCCC3)n2)cc1OC (stereo unspecified) | inconclusive [inhibitor, single point] | – |
| Cc1ccc(NC(=O)ON=C2CCCC2)cc1 | inconclusive [inhibitor, single point] | – |
| CCOC(=O)[C@]12CCCC=C1N(Cc1ccco1)C(=O)[C@H](CC(=O)N1CCN(C(=O)c3ccco3)CC1)C2 | inactive | – |
| CC(=O)N1c2ccc(S(=O)(=O)NCC3CCC(C(=O)Nc4ccc(C)cc4)CC3)cc2CC1C (stereo unspecified) | inconclusive [inhibitor, partial curve] | – |
| COc1cccc(-c2nc(NCc3ccccc3OC)c3ccccc3n2)c1 | inconclusive [inhibitor, single point] | – |
| CCOc1ccccc1NC(=O)c1nc[nH]c1C(=O)Nc1ccccc1OCC | active: 16.4 µM | – |
| COCCNC(=O)c1ccc2c(c1)NC(=O)CS2 | inactive | – |

| Structure (SMILES) | Potency | activity change, negative = growth inhibition |
| --- | --- | --- |
| COC(=O)c1cc2sc(C)cc2n1CC(=O)Nc1ccc(C)c(C)c1 | inconclusive [inhibitor, partial curve] | – |
| Cc1cccc(N2CCN(S(=O)(=O)c3cccc4nonc34)CC2C)c1 (stereo unspecified) | inactive | – |
| CCc1ccc(NC(=O)CN2CCCN(Cc3cccc(Cl)c3)S2(=O)=O)cc1 | inconclusive [inhibitor, partial curve] | – |
| O=[N+]([O-])c1ccc(/C=N/NC(=S)Nc2ccccc2C(F)(F)F)o1 | active: 8.2 µM | – |
| Cn1c(CSCc2ccc(Cl)cc2)nnc1SCC(=O)Nc1nccs1 | inconclusive [inhibitor, single point] | – |
| CC[C@@H](C)C(NC(=O)OC(C)(C)C)c1cn([C@@H](Cc2ccc(O)cc2)C(=O)N2CCN(C(=O)OC(C)(C)C)CC2)nn1 (stereo partly specified) | inconclusive [inhibitor, single point] | – |
| CCCCCC(=O)N1CC2(CC(c3cccc(NC(=O)c4ccccc4)c3)=NO2)C[C@@H]1C(N)=O (stereo partly specified) | inconclusive [inhibitor, single point] | – |
| Cc1csc(NC(=O)NCC2CCCC(CNC(=O)Nc3nc(C)cs3)C2)n1 (stereo unspecified) | inconclusive [inhibitor, single point] | – |
| O=C(CSc1nnc(Cn2nnc3ccccc32)o1)N(Cc1ccc(F)cc1)c1ccccc1 | active: 7.31 µM | – |
| COc1ccccc1C(=O)Nc1ccc(Oc2nnc(-c3ccc(C)cc3)c3ccccc23)cc1 | inconclusive [inhibitor, single point] | – |
| COc1ccc(N2CCN(c3c(S(=O)(=O)c4ccccc4)cnc4ccc(OC)cc34)CC2)cc1 | active: 23.1 µM | – |
| O=C(Nc1ccc(S(=O)(=O)NC2CCCCC2)cc1)c1ccc(Br)o1 | inconclusive [inhibitor, partial curve] | – |
| C/C(=N\NC(=O)c1ccc(O)cc1O)c1cccnc1 | inactive | – |
| COc1ccc2c(c1)CC/C(=C/c1ccccn1)C2=O | inconclusive [inhibitor, single point] | – |
| O=C(C(=Cc1ccc(F)cc1)C(=O)c1ccccc1)c1ccccc1 | inconclusive [inhibitor, single point] | – |
| COc1ccc2c(c1)SC(C)CC2=O (stereo unspecified) | inactive | – |
| CSC[C@H]1CN(c2ccccc2)C(=O)[C@@H]1CC(=O)Nc1ccccc1 | inconclusive [inhibitor, full curve, poor fit] | – |
| CC(C)(C)NC(=O)c1cc([N+](=O)[O-])ccc1N1CCCCC1 | inactive | – |
| COc1ccc(NS(=O)(=O)c2ccc(N3CCOCC3)c(NC(=O)/C=C/C(=O)O)c2)cc1 | inactive | – |
| Clc1cccc(CNc2ccn3nc(-c4ccc(OCc5ccccc5)cc4)cc3n2)c1 | active: 16.4 µM | – |
| O=C(NCc1ccc(Cl)c(Cl)c1)c1cc(C2CCCCN2C(=O)CCc2ccccc2)on1 (stereo unspecified) | inconclusive [inhibitor, single point] | – |
| CCc1c(C(=O)NC2CCCc3ccccc32)[nH]c(C)c1C(C)=O (stereo unspecified) | inconclusive [inhibitor, single point] | – |
| O=C(CSc1ncnc2[nH]ncc12)Nc1nc(-c2ccc(F)c(F)c2)cs1 | active: 13 µM | – |
